Data: PMC12040169 (PLOS Biology, 2025)
The other results are listed elsewhere or left out.

Tested on: T1, C. trachomatis L2/434/Bu expressing GFP (CTL2-GFP)
T1 construct: L2/434/Bu GFP intracellular growth in HeLa cells
Parameters: species or system HeLa; C. trachomatis total inclusion area by high-content imaging, normalised to DMSO
Conditions: total inclusion area; 28.5 h, 10 µM; inhibitor
Outline: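 Host cell viability was gauged from Hoechst-stained nuclei counts, while chlamydial growth was taken from total inclusion area and inclusion number per well. Cells were fixed and imaged by high-content microscopy once bulk GFP and resorufin fluorescence had been measured.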

| SMILES | % of control remaining |
| --- | --- |
| COc1ccc(N2CCN(c3c(C)c(C)nc4cc(-c5nccn5C)nn34)CC2)cc1 [CBK286178] | 94.7825 |
| COc1ccc([C@H]2CN(C(=O)c3ccccc3)[C@@H]3CCN(Cc4cccc(F)c4)C[C@H]23)cc1 [CBK285584] | 86.995 |
| Cn1ccnc1CN1CCCN(C(=O)c2cccc(C#N)c2)CC1 [CBK303998] | 45.1029 |
| O=C(NCc1cccc(C(F)(F)F)c1)c1cnc(-c2ccccc2)c(-c2ccco2)c1 [CBK036667] | 114.549 |
| O=C(O)COc1ccccc1/C=N\N1CCN(c2ccccn2)CC1 [CBK262916] | 103.582 |
| O=C(c1cccc(F)c1)N1CCC(O)(c2cccnc2F)CC1 [CBK284357] | 75.3805 |
| COc1ccc2c(c1)CCN=C2C[C@H]1CN(C(=O)C(C)(C)C)CC[C@H]1CC(=O)O [CBK289155] | 108.856 |
| CCN1CCN(C(=O)C2CC=CCC2C(=O)O)CC1 (stereo not shown) [CBK270295] | 72.3876 |
| C(=N\N1CCOCC1)/c1cccs1 [CBK027942] | 103.167 |
| CCn1c2ccccc2c2cc(CN3CCN(c4ccccc4OC)CC3)ccc21 [CBK261579] | 91.7133 |
| Cc1c(Cl)cccc1NC(=O)CSCc1cc(O)[nH]n1 [CBK268199] | 106.992 |
| COc1ccc(C(=O)N2CCC3(CCCN(C(=O)Cn4cc(C)c(=O)[nH]c4=O)C3)C2)cc1OC (stereo not shown) [CBK137085] | 84.8207 |
| O=C(CN(c1ccc(Cl)cc1)S(=O)(=O)c1ccccc1)Nc1ccc2ccccc2c1 [CBK263776] | 75.1217 |
| CN1CCN(C(=O)C2CCN(S(=O)(=O)c3ccc4ccccc4c3)CC2)CC1 [CBK269504] | 40.9707 |
| Cc1ncsc1CCOc1cc(N2CCCC2)ncn1 [CBK115895] | 95.9625 |
| O=C(C1CCCCC1)N1CCC(c2nnc3n2CCCCC3)CC1 [CBK284613] | 119.085 |
| N#Cc1c(SCC(=O)N2CCc3ccccc3C2)nsc1SCC(=O)N1CCc2ccccc2C1 [CBK267453] | 86.5031 |
| O=C(CSc1ncnc2ccccc12)Nc1nc2ccccc2s1 [CBK287510] | 88.2016 |
| CC1CCN(S(=O)(=O)c2ccc(NC(=O)c3ccc(Br)o3)cc2)CC1 [CBK264536] | 95.3931 |
| CCNc1nc(-c2ccc3[nH]ccc3c2)cn2ccnc12 [CBK038002] | 109.809 |
| O=C(O)C1CCCN(C(=O)COc2cc3oc(=O)cc(-c4ccccc4)c3cc2Cl)C1 (stereo not shown) [CBK286753] | 83.6401 |
| Fc1ccc2[nH]c3c(c2c1)CCN1C(c2cccnc2)N2CCC31CC2 (stereo not shown) [CBK284436] | 54.8211 |
| CCN(Cc1ccccc1)C(=O)Nc1ccc2[nH]ccc2c1 [CBK155229] | 65.2629 |
| O=C(NCCN1CCOCC1)c1cc(Br)cnc1N1CCOCC1 [CBK076202] | 100.058 |
| COCCNS(=O)(=O)c1ccc(C)cc1 [CBK002332] | 54.5389 |
| COc1cc(CCN2CCC(c3nc(-c4ccccc4)c4ccccn34)CC2)cc(OC)c1OC [CBK035278] | 79.0658 |
| CC(C)c1nc(CCN(C)C(=O)NCc2cnc3cnccn23)no1 [CBK307666] | 96.6 |

| SMILES | % of control remaining |
| --- | --- |
| COc1ccc2[nH]cc(C(C(=O)O)N3CCCCC3)c2c1 (stereo not shown) [CBK286676] | 71.4394 |
| CCCCOc1ccc(C(=O)OC(Cc2cccc3ccccc23)CN(CC)CC)cc1 (stereo not shown) [CBK011965C] | 30.6416 |
| CC(C)Nc1nc2cc(Cl)c(Cl)cc2nc1OCCCN(C)C [CBK115282] | 95.5282 |
| Cc1ccc(S(=O)(=O)N(CC(O)CN2CCCCC2)c2ccccc2)cc1 (stereo not shown) [CBK263570] | 42.8678 |
| COCCCNC(=O)c1cnn2c(C)c(Cc3ccccc3)c(C)nc12 [CBK162216] | 66.545 |
| COc1cc(CNC(=O)c2ccc(O)nc2)ccc1OCc1ccncc1 [CBK298297] | 83.3164 |
| O=C(NCc1ccc(F)cc1)c1cc(Br)cnc1NCc1cccnc1 [CBK076405] | 78.0944 |
| O=C(NC1(c2ccccc2)CCCC1)c1ccc(=O)n(CC(=O)N2CCCCC2)c1 [CBK285631] | 117.55 |
| C=CCn1c(-c2sc(NC(=O)CCc3ccco3)nc2C)n[nH]c1=S [CBK295312] | 138.837 |
| CCCc1ccc(S(=O)(=O)Nc2cccc(C(=O)OCC)c2)cc1 [CBK034332] | 92.7872 |
| Cn1c(=O)n(CC(=O)NCc2cccs2)c2cccnc21 [CBK283907] | 97.3741 |
| c1coc(-c2cn3ccnc3c(NCCc3ccncc3)n2)c1 [CBK037333] | 136.916 |
| O=C(CCCCCN1C(=O)c2ccccc2C1=O)NO [CBK288514] | 118.091 |
| N#Cc1ccc(N2CCCC(N3CCNC3=O)C2)c(C(F)(F)F)c1 (stereo not shown) [CBK305162] | 82.8104 |
| Cc1ccc(-c2nccnc2OCCOc2ccccc2)c(C)c1 [CBK106991] | 104.835 |
| Cc1ccc(C)c(NC(=O)CN(Cc2ccc(Cl)c(Cl)c2)S(=O)(=O)c2ccccc2)c1 [CBK264191] | 77.723 |
| O=C(O)CCC(=O)N1CCCC2(CCN(C(=O)Cc3c[nH]c4ccccc34)C2)C1 (stereo not shown) [CBK131572] | 89.409 |
| COc1cc(CNc2ccc(N3CCCCC3)cc2)cc(Cl)c1OCc1cccs1 [CBK074586] | 59.6214 |
| Cc1ccc2[nH]c(SCc3nc4ccccc4c(=O)[nH]3)nc2c1 [CBK269908] | 102.397 |
| O=C(Cn1nnc(-c2ccccc2)n1)Nc1ccccc1C(=O)O [CBK264358] | 108.39 |
| Cc1nc2ccc(NC(=O)CC(c3ccccc3)c3ccccc3)cc2s1 [CBK293988] | 73.5845 |
| O=C(Cc1ccc(F)cc1Cl)N1CCn2c(nnc2C2CC2)C1 [CBK283773] | 65.306 |
| CC(C)(C)OC(=O)N1CCCC(C(=O)NC2CCCc3ccccc32)C1 (stereo not shown) [CBK305617] | 58.4624 |
| O=S(=O)(c1ccc(-c2csc(-c3cccnc3)n2)cc1)N1CCCCCC1 [CBK265502] | 86.2478 |
| O=C(O)c1cn(C2CC2)c2cc(N3CCN(C(=O)Cc4ccccc4Cl)CC3)c(F)cc2c1=O [CBK297136] | 14.8386 |
| CCOC(=O)c1cnc(SCC(=O)N2c3ccccc3SC3C=CC=CC32)nc1N (stereo not shown) [CBK269029] | 107.732 |
| COCC(=O)N[C@H]1C[C@@H](Cc2cc(C(C)(C)C)on2)C1(C)C [CBK289244] | 101.347 |

| SMILES | % of control remaining |
| --- | --- |
| COc1cc(C)nc(NCc2cnn(C)c2C)n1 [CBK306277] | 84.7783 |
| COc1ccc(CCN(CCN2CCOCC2)C(=O)NCc2ccc3c(c2)OCO3)cc1OC [CBK160540] | 49.9531 |
| CCC(C)(C)c1ccc(S(=O)(=O)N(CCC#N)Cc2cccnc2)cc1 [CBK043960] | 84.673 |
| CCCn1c(SCc2csc(COc3ccc(Cl)cc3)n2)n[nH]c1=O [CBK295140] | 47.7791 |
| CCOc1ccc(S(=O)(=O)N2CCCN(Cc3c[nH]c(C)n3)CC2)c2cccnc12 [CBK063031] | 67.0583 |
| COc1ccc(C(=O)N2CCC3(CCCN(Cc4nc5ccccc5[nH]4)C3)C2)cc1OC (stereo not shown) [CBK132847] | 102.227 |
| c1ccc(SCCCSc2ccccn2)cc1 [CBK021704] | 36.4552 |
| O=C(Cc1c[nH]c2ccccc12)N1CCC2(CCN(C(=O)c3cccnc3)C2)C1 (stereo not shown) [CBK131453] | 98.0504 |
| C=CCNC(=O)CCn1c(C(C)C)cc2cccnc21 [CBK283289] | 78.7271 |
| COc1ccc(CN2CCOCC2)cc1Br [CBK027346] | 80.9866 |
| Oc1noc(O)c1-c1ncc(C(F)(F)F)cc1Cl [CBK007439] | 76.0935 |
| CCc1nc2cc(NC(=O)Cn3cc(C)cn3)ccc2n1CC [CBK281608] | 113.416 |
| O=C(NCCO)c1cccc(-c2cc(N3CCCC3CO)n3nccc3n2)c1 (stereo not shown) [CBK037187] | 96.373 |
| Cc1cn([C@H]2C[C@@H](O)[C@@H](CO)O2)c(=O)nc1-n1cncn1 [CBK201235] | 54.2574 |
| c1cc2c(cc1CN1CCC(Oc3cncc(OCCN4CCOCC4)n3)C1)OCO2 (stereo not shown) [CBK084487] | 76.1552 |
| C[C@]12CN(Cc3cccs3)C[C@H]1C(=O)Nc1ccccc1C(=O)N2 [CBK284705] | 116.65 |
| O=C(COc1ccc2ccccc2c1)OCC(=O)c1ccc([N+](=O)[O-])cc1 [CBK261586] | 101.975 |
| CS(=O)(=O)NCC1(c2ccccc2)CCN(S(=O)(=O)c2c(Cl)cccc2Cl)CC1 [CBK051633] | 108.295 |
| Cc1ccn(CCNC(=O)CSc2nccc3ccccc23)n1 [CBK282678] | 114.418 |
| C=CCN1C(=O)CC2(C1=O)C(=O)N(CCCn1c(=O)c3c(ncn3C)n(C)c1=O)c1ccc(OC)cc12 (stereo not shown) [CBK075701] | 109.147 |
| CCOC(=O)c1c(NC(=O)CSc2nc[nH]n2)sc2c1CCC2 [CBK267225] | 83.2145 |
| Cc1ccc(NC(=O)c2cc(NC(=O)C3C4C=CC(C4)C3C(=O)O)ccc2N2CCCCC2)cc1 (stereo not shown) [CBK265350] | 93.2607 |
| COc1ccc(NC(=O)Cc2csc(NC(C)=O)n2)cc1 [CBK287650] | 70.6327 |
| COC(=O)c1sc2ncccc2c1NS(=O)(=O)Cc1ccccc1[N+](=O)[O-] [CBK049974] | 110.206 |
| FC(F)(F)c1ccnc(SCc2ccc(Cl)c(Cl)c2)n1 [CBK103723] | 76.2263 |
